# Reference: the supplement of paper PMC8728848
# This is one part of the list.
# Key:
# Test in all cases: glycan array binding signal (z-score within array); higher = stronger binding
# Details in all cases: glycan notation: IUPAC condensed, linker removed
# Fuc(a1-3)GlcNAc = target: Fuc(a1-3)GlcNAc
# Procedure, shortened: (§1)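 From the Consortium for Functional Glycomics database, 3228 arrays were curated, keeping only those whose protein sequence was available. Binding is given as a within-array Z-score averaged across arrays sharing a protein sequence and across linkers. Negative Z-scores can be read as non-binding.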
# [1] = target: Fuc(a1-3)[Gal(b1-4)]Glc6S
# Procedure, shortened: as §1
# [2] = target: Fuc(a1-3)[Gal(b1-4)]GlcNAc
# Procedure, shortened: as §1
# [3] = target: Fuc(a1-3)[Gal(b1-4)]GlcNAc(b1-2)Man
# Procedure, shortened: as §1
# [4] = target: Fuc(a1-3)[Gal(b1-4)]GlcNAc(b1-2)Man(a1-3)[Fuc(a1-3)[Gal(b1-4)]GlcNAc(b1-2)Man(a1-6)]Man(b1-4)GlcNAc(b1-4)GlcNAc
# Procedure, shortened: as §1
# [5] = target: Fuc(a1-3)[Gal(b1-4)]GlcNAc(b1-2)Man(a1-3)[Fuc(a1-3)[Gal(b1-4)]GlcNAc(b1-2)Man(a1-6)]Man(b1-4)GlcNAc(b1-4)[Fuc(a1-6)]GlcNAc
# Procedure, shortened: as §1
# [6] = target: Fuc(a1-3)[Gal(b1-4)]GlcNAc(b1-3)Gal(b1-3)[Fuc(a1-4)]GlcNAc
# Procedure, shortened: as §1
# [7] = target: Fuc(a1-3)[Gal(b1-4)]GlcNAc(b1-3)GalNAc
# Procedure, shortened: as §1
# [8] = target: Fuc(a1-3)[Gal(b1-4)]GlcNAc(b1-4)Gal(b1-4)[Fuc(a1-3)]GlcNAc
# Procedure, shortened: as §1
# [9] = target: Fuc(a1-3)[Gal(b1-4)]GlcNAc(b1-4)Gal(b1-4)[Fuc(a1-3)]GlcNAc(b1-4)Gal(b1-4)[Fuc(a1-3)]GlcNAc
# Procedure, shortened: as §1
# [10] = target: Fuc(a1-3)[Gal(b1-4)]GlcNAc(b1-6)GalNAc
# Procedure, shortened: as §1
# [11] = target: Fuc(a1-3)[Gal(b1-4)]GlcNAc(b1-6)[Gal(b1-3)GlcNAc(b1-3)]Gal(b1-4)Glc
# Procedure, shortened: as §1
# [12] = target: Fuc(a1-3)[Gal(b1-4)]GlcNAc6S
# Procedure, shortened: as §1
# [13] = target: Fuc(a1-3)[Gal3S(b1-4)]Glc
# Procedure, shortened: as §1
# [14] = target: Fuc(a1-3)[Gal3S(b1-4)]GlcNAc
# Procedure, shortened: as §1
# [15] = target: Fuc(a1-3)[Gal3S(b1-4)]GlcNAc6S
# Procedure, shortened: as §1
# [16] = target: Fuc(a1-3)[GalNAc(b1-4)]GlcNAc
# Procedure, shortened: as §1
# [17] = target: Fuc(a1-3)[GalNAc(b1-4)]GlcNAc6S
# Procedure, shortened: as §1
# Fuc(a1-4)GlcNAc = target: Fuc(a1-4)GlcNAc
# Procedure, shortened: as §1
# Fuc(b1-3)GlcNAc = target: Fuc(b1-3)GlcNAc
# Procedure, shortened: as §1
# Gal(a1-2)Gal = target: Gal(a1-2)Gal
# Procedure, shortened: as §1
# Gal(a1-3)Gal = target: Gal(a1-3)Gal
# Procedure, shortened: as §1
# Gal(a1-3)Gal(b1-3)GlcNAc = target: Gal(a1-3)Gal(b1-3)GlcNAc
# Procedure, shortened: as §1
# [18] = target: Gal(a1-3)Gal(b1-3)GlcNAc(b1-2)Man
# Procedure, shortened: as §1
# [19] = target: Gal(a1-3)Gal(b1-3)GlcNAc(b1-2)Man(a1-3)[Gal(a1-3)Gal(b1-3)GlcNAc(b1-2)Man(a1-6)]Man(b1-4)GlcNAc(b1-4)GlcNAc
# Procedure, shortened: as §1
# [20] = target: Gal(a1-3)Gal(b1-3)GlcNAc(b1-3)GalNAc
# Procedure, shortened: as §1
# [21] = target: Gal(a1-3)Gal(b1-3)GlcNAc(b1-6)GalNAc
# Procedure, shortened: as §1
# [22] = target: Gal(a1-3)Gal(b1-3)[Fuc(a1-4)]GlcNAc(b1-2)Man(a1-3)[Gal(a1-3)Gal(b1-3)[Fuc(a1-4)]GlcNAc(b1-2)Man(a1-6)]Man(b1-4)GlcNAc(b1-4)GlcNAc
# Procedure, shortened: as §1
# Gal(a1-3)Gal(b1-4)Glc = target: Gal(a1-3)Gal(b1-4)Glc
# Procedure, shortened: as §1
# Gal(a1-3)Gal(b1-4)GlcNAc = target: Gal(a1-3)Gal(b1-4)GlcNAc
# Procedure, shortened: as §1
# [23] = target: Gal(a1-3)Gal(b1-4)GlcNAc(b1-2)Man
# Procedure, shortened: as §1
# [24] = target: Gal(a1-3)Gal(b1-4)GlcNAc(b1-2)Man(a1-3)[Gal(a1-3)Gal(b1-4)GlcNAc(b1-2)Man(a1-6)]Man(b1-4)GlcNAc(b1-4)GlcNAc
# Procedure, shortened: as §1
# [25] = target: Gal(a1-3)Gal(b1-4)GlcNAc(b1-3)GalNAc
# Procedure, shortened: as §1
# [26] = target: Gal(a1-3)Gal(b1-4)GlcNAc(b1-6)GalNAc
# Procedure, shortened: as §1
# [27] = target: Gal(a1-3)Gal(b1-4)[Fuc(a1-3)]GlcNAc
# Procedure, shortened: as §1
# [28] = target: Gal(a1-3)Gal(b1-4)[Fuc(a1-3)]GlcNAc(b1-2)Man(a1-3)[Gal(a1-3)Gal(b1-4)[Fuc(a1-3)]GlcNAc(b1-2)Man(a1-6)]Man(b1-4)GlcNAc(b1-4)GlcNAc
# Procedure, shortened: as §1
# Gal(a1-3)GalNAc = target: Gal(a1-3)GalNAc
# Procedure, shortened: as §1
binder,measurement,setting,value
"ECL (Erythrina cristagalli), Q6YD91 (protein) VETISFSFSEFEPGNNDLTLQGAAIITQSGVLQLTKINQNGMPAWDSTGRTLYTKPVHIWDMTTGTVASFETRFSFSIEQPYTRPLPADGLVFFMGPTKSKPAQGYGYLGVFNNSKQDNSYQTLAVEFDTFSNPWDPPQVPHIGIDVNSIRSIKTQPFQLDNGQVANVVIKYDASSKILLAVLVYPSSGAIYTIAEIVDVKQVLPEWVDVGLSGATGAQRDAAETHDVYSWSFHASLPETND",glycan array binding signal (z-score),Fuc(a1-3)GlcNAc,-0.424
same,glycan array binding signal (z-score),[1],-0.148
same,glycan array binding signal (z-score),[2],-0.23
same,glycan array binding signal (z-score),[3],-0.236
same,glycan array binding signal (z-score),[4],-0.243
same,glycan array binding signal (z-score),[5],1.72
same,glycan array binding signal (z-score),[6],-0.15
same,glycan array binding signal (z-score),[7],-0.179
same,glycan array binding signal (z-score),[8],-0.233
same,glycan array binding signal (z-score),[9],-0.111
same,glycan array binding signal (z-score),[10],0.251
same,glycan array binding signal (z-score),[11],-0.145
same,glycan array binding signal (z-score),[12],-0.319
same,glycan array binding signal (z-score),[13],-0.256
same,glycan array binding signal (z-score),[14],-0.286
same,glycan array binding signal (z-score),[15],-0.357
same,glycan array binding signal (z-score),[16],-0.225
same,glycan array binding signal (z-score),[17],-0.33
same,glycan array binding signal (z-score),Fuc(a1-4)GlcNAc,-0.108
same,glycan array binding signal (z-score),Fuc(b1-3)GlcNAc,-0.258
same,glycan array binding signal (z-score),Gal(a1-2)Gal,-0.32
same,glycan array binding signal (z-score),Gal(a1-3)Gal,-0.343
same,glycan array binding signal (z-score),Gal(a1-3)Gal(b1-3)GlcNAc,-0.368
same,glycan array binding signal (z-score),[18],-0.209
same,glycan array binding signal (z-score),[19],0.219
same,glycan array binding signal (z-score),[20],-0.318
same,glycan array binding signal (z-score),[21],-0.127
same,glycan array binding signal (z-score),[22],0.558
same,glycan array binding signal (z-score),Gal(a1-3)Gal(b1-4)Glc,-0.173
same,glycan array binding signal (z-score),Gal(a1-3)Gal(b1-4)GlcNAc,-0.235
same,glycan array binding signal (z-score),[23],-0.116
same,glycan array binding signal (z-score),[24],0.249
same,glycan array binding signal (z-score),[25],-0.276
same,glycan array binding signal (z-score),[26],-0.406
same,glycan array binding signal (z-score),[27],-0.139
same,glycan array binding signal (z-score),[28],-0.351
same,glycan array binding signal (z-score),Gal(a1-3)GalNAc,-0.134
